Source: PubChem BioAssay AID1963576 (National Center for Advancing Translational Sciences (NCATS), 2024)
Screen size: about 46,000 compounds; about 60 (0.1%) were called active. About 3% were inconclusive and are not listed. The call rests on the fitted dose curve; in most records, active means well fitted inhibition curve with a large enough effect; inconclusive means small, poorly fitted or top-dose-only effect; inactive means no such curve, though single readings can be large or run the other way. The list shows a part of the results.

test: Primary qHTS assay for Inhibitors of ovarian cancer metastasis using an organotypic tumor microenvironment (TME) model.; further: nearly all actives have a fitted effect of over 65% in size;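 on activity change, negative = inhibition: plate controls were DMSO wells for no effect and tomatine positive control wells for full effect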; conditions: SKOV3ip1-GFP adhesion/invasion on 3D omental model, fluorescence; series mostly up to 45.8 µM; activity change, negative = inhibition: at the top concentration
Summary of the method: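 qHTS, 4-pt dose (0.36-46 umol/L); SKOV3ip1-GFP, 1,200 cells/well, no FBS; primary omental fibroblast/mesothelial co-culture 48 h pre-grown; 2 h RT + 16 h 37 C; PBS wash, 4% PFA; GFP count 488/509 nm.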

Activity change, negative = inhibition, inactive:
Cc1ccc(C(C)C)c(OCc2ccc(C(=O)Nc3ccc(S(N)(=O)=O)cc3C)o2)c1 -15.3%
Cc1cccc(N(C)C(=O)CS(=O)(=O)c2cccc3nsnc23)c1 -7.29%
CCOc1ccc(Nc2cc(C)c(C#N)c3nc4ccccc4n23)cc1 2.75%
Cc1ccc(S(=O)(=O)c2nc(-c3ccco3)oc2SCC(=O)c2ccc(Cl)cc2)cc1 9.19%
CCOc1ccc(CCNC(=O)c2ccc(C)c(-n3cnc4cccnc43)c2)cc1 5.08%
CC(C)NC(=O)Cn1c(=O)nc(-c2ccccc2)c2ccccc21 -7.83%
Cc1nc(-n2nc(C)c(CCC(C)C)c2C)sc1C(=O)Nc1cccc(Cl)c1C -15%
Cn1nnnc1SCCCNCc1ccc(-c2cccc(Cl)c2)o1 0.89%
COc1cc(OC)c(C(=O)CCCN2CCCC2)c(OC)c1 4.66%
CC1CCN(c2nn3c(=O)c(C(=O)NCCc4ccc(Cl)cc4)cnc3s2)CC1 3.67%
O=c1[nH]c2ccc(NS(=O)(=O)c3ccc(F)cc3)cc2s1 -3.08%
COc1ccc(Cl)cc1NC(=O)COC(=O)CC(C)(C)CC1=NS(=O)(=O)c2ccccc2N1 -1.06%
CCN(CC)CCCNC(=O)C(C)n1nc(C)n2c(cc3occc32)c1=O (stereo not drawn) 121%
COCCCN1C(=O)c2[nH]nc(-c3ccccc3O)c2C1c1ccc(OC)cc1 (stereo not drawn) -37.4%
CC(C)c1ccc(NC(=O)c2cc(S(=O)(=O)NC3CCCCC3)ccc2F)cc1 -16.8%
Cc1cccc(Cn2c(SCc3ccc(C(=O)NCc4cccs4)cc3)nc3cccnc32)c1 -11.6%
O=c1cc2nc(-c3ccccc3F)nc(SCc3ccc(Br)cc3)n2[nH]1 0.637%
CCOC(=O)c1c(C)[nH]c(C)c1S(=O)(=O)N1CCCC(C(=O)Nc2ccc(OC)c(OC)c2)C1 (stereo not drawn) 0.925%
COc1ccc(NC(=O)CSc2nnc(-c3nonc3NC(C)=O)n2C)cc1Cl 2.13%
Cc1ccc2[nH]c(CSc3nnc(C)s3)cc(=O)c2c1 1.94%
O=C(C1CCC(CNS(=O)(=O)c2cccs2)CC1)N1CCN(c2ccc(Cl)cc2)CC1 (stereo not drawn) -18.3%
COc1ccc(CCNC(=O)Cn2c(=O)nc(-c3ccccc3F)c3cc(Cl)ccc32)cc1OC 11%
Cc1cccc(N2CCN(C(=O)C3CCCN(C(=O)c4cc5sccc5n4C)C3)CC2)c1C (stereo not drawn) 7.51%
O=C(Nc1cc(-c2ccc(F)c(F)c2)no1)c1ccccc1F -0.245%
N#CC(c1ccc(Cl)cc1)c1c(Cl)cc(-n2ncc(=O)[nH]c2=O)cc1Cl (stereo not drawn) -8.04%
O=c1ccc2ccc(O)c(O)c2o1 18.5%
COc1ccc(NC(=O)C(=O)c2cc(C)n(-c3ccc(C)cc3)c2C)cc1Cl -4.12%
CCOc1ccc(CCNC(=O)Cn2ccc3cc(S(=O)(=O)N4CCCCCC4)ccc32)cc1 -10.4%
CCC1CN(C(=O)C2CCN(S(=O)(=O)c3c(C)noc3/C=C/c3ccc(C)cc3)CC2)c2cc(C)ccc2O1 (stereo not drawn) -6.32%
CC1=C(C(=O)Nc2ccc(F)cc2)C(c2ccc(N(C)C)cc2)NC(=O)N1 (stereo not drawn) 3.57%
COc1ccc(CNC(=O)Cc2ccc(NC(=O)N3CCCCc4ccccc43)cc2)cc1 0.205%
CCCOC(=O)c1cccc(Nc2nc(C(=O)OCC)nc3ccccc23)c1 -0.319%
CC1CCCN(c2ncnc3c2nnn3C)C1 (stereo not drawn) -8.54%
Cc1cc(C)cc(NC(=O)c2cc(S(=O)(=O)N3CCCCC3)c[nH]2)c1 -14.1%
CC(Oc1ccccc1F)C(=O)NCC1(N2CCOCC2)CCCCC1 (stereo not drawn) -11.5%
COc1cccc(CNC(=O)Nc2ccc3c(c2)N(C)C(=O)c2ccccc2S3)c1 16.2%
COc1ccc(OC)c(-c2cc(C(=O)NCc3ccc(Cl)cc3)no2)c1 2.21%
Cc1ccc(-c2nn3c(C)nnc3c3ccccc23)cc1S(=O)(=O)NC(C)(C)CO -16.8%
CCc1ccc(NC(=O)c2sc3nc(C)cc(C)c3c2NC(=O)c2ccccc2)cc1 52.5%
CC(C)(C)C(=O)OCOP(=O)(COCCn1cnc2c(N)ncnc21)OCOC(=O)C(C)(C)C -18.6%
Cc1ccc(C)c(NC(=O)Cn2cc(S(=O)(=O)c3ccc(F)cc3)c(=O)c3cc(F)ccc32)c1 25.2%
CN(C)S(=O)(=O)c1ccc2c(c1)N(CC(=O)N1CCC(C(N)=O)CC1)CCS2 136%
O=C(Nc1nnc2n1CCS2)c1cc(C(F)(F)F)cc(C(F)(F)F)c1 5.62%
COc1ccc(C(=O)N2CCN(CCc3ccccn3)CC2)cc1 0.0498%
Cc1ccc(NC(=O)C2CCCN(c3nc4ccccc4s3)C2)c(C)c1 (stereo not drawn) 1.12%
COc1ccc(-c2cc(C(F)(F)F)n3nc(C(=O)Nc4ccc(Cl)cc4C(F)(F)F)cc3n2)cc1OC -4.07%
Cc1cccc(C)c1NC(=O)Cn1c(=O)n(CCC(=O)NCc2ccc3c(c2)OCO3)c(=O)c2sccc21 5.94%
Cn1c(=O)c2c(-c3ccccc3)n3c(c2n(C)c1=O)C(c1cccc([N+](=O)[O-])c1)Nc1ccccc1-3 (stereo not drawn) -3.76%
Cc1ccc(NC(=O)c2cnc(SCC(=O)N3CCCc4ccccc43)n(C)c2=O)cc1C -11.6%
Cc1oc(-c2ccccc2)nc1Cn1c(=O)cc(-c2ccccc2)c2c(C)nn(C)c21 3.55%
COc1ccc(-c2cc(C(=O)Nc3c(C(=O)c4ccc(C)c(F)c4)oc4ccccc34)no2)cc1 17.8%
CCOc1ccc(CNC(=O)c2ccc(Sc3ccc(C)cc3)c(N)c2)cc1OC -13.9%
CCn1c(=O)c2cc(C(=O)NCCc3ccc(OC)c(OC)c3)sc2c2ccccc21 -15.7%
Cc1ccc2nc(Cl)c3cc(C(=O)N4CCCC(C)C4)sc3c2c1 (stereo not drawn) 14.5%
COc1ccc(OCC(=O)Nc2ccc3c(c2)N(C)C(=O)c2ccccc2S3)cc1 -0.319%
CC(=O)Nc1sc2c(c1-c1nc3ccccc3s1)CNC2 -11.3%
COc1ccc(-c2cc(C(F)(F)F)n3nc(C(=O)Nc4cccc(Cl)c4Cl)cc3n2)cc1OC -2.19%
COC(=O)CSc1nnc(-c2cccc(O)c2)o1 -1.74%
COC(=O)Cn1c(SCCOc2ccccc2Cl)nc2ccccc21 6.26%
O=C(CCS(=O)(=O)c1nc(-c2ccc3c(c2)OCO3)cc(C(F)(F)F)n1)Nc1ccccc1C(F)(F)F -4.66%
O=C(Cc1ccc(F)cc1)NCCc1csc2nc(-c3ccc(Cl)cc3)nn12 -27.8%
COC(=O)c1cc(NC(=O)CCc2c(C)nc3nc(C)nn3c2C)cc(C(=O)OC)c1 -22.8%
Cc1cccc(CC(=O)Nc2cccc(-c3cn4cccnc4n3)c2)c1 -0.792%
Cc1ccc2c(c1)-c1onc(C(=O)N(C)c3ccc(F)cc3)c1CO2 -1.6%
CCOC(=O)Cn1c(=O)cc(C)c2c(C)nn(-c3cccc(F)c3)c21 9.05%
Cc1ccc(-n2ncc3c(=O)n(Cc4cccc(C(F)(F)F)c4)cnc32)cc1C 2.65%
CC1=C(C(=O)Nc2ccccc2C)C(c2ccc[nH]2)n2ncnc2N1 (stereo not drawn) -21.6%
CCCCn1c(SCc2ccccc2C#N)nc2c(sc3ccccc32)c1=O 8.09%
COc1ccc(CNC(=O)C2CCN(S(=O)(=O)Cc3ccccc3)CC2)cc1 -12.4%
Cc1cccc(NC(=O)c2cc3c(C)nn(-c4ccccc4)c3s2)c1 -4.51%

outcome, inactive:
O=C(CN1C(=O)COc2ccc(S(=O)(=O)N3CCCC3)cc21)NCCc1ccc(Cl)cc1
Oc1ccccc1-c1nc(/C=C/c2ccccc2)nn1-c1ccccc1
CCOC(=O)c1c(NC(=O)c2ccccc2C)sc2c1CCCC2
O=C(OCc1ccco1)c1ccc2c(c1)N(Cc1ccc([N+](=O)[O-])cc1)C(=O)c1ccccc1S2
Brc1ccc(-c2nc(N3CCN(c4ccccc4)CC3)c3ccccc3n2)cc1
COc1ccc2oc(=O)cc(CN3CCN(C(=O)c4ccccc4Br)CC3)c2c1
CCOc1ccc2nc(N3CCN(C(=O)C(C)C)CC3)sc2c1
COC(=O)c1cc(C)nc2c1c(=O)nc(SCc1cccc(C(F)(F)F)c1)n2C1CC1
Cc1c(Cl)cccc1NC(=O)CCn1cnnn1
Cc1ccc(-n2ccnc(NCCc3ccccc3)c2=O)cc1C
COC(=O)c1ccccc1NC(=O)CN(c1ccc(Cl)cc1)S(=O)(=O)c1ccc(OC)cc1
COc1ccc(N2CCN(c3ncnc4onc(C)c34)CC2)cc1
CCOc1ccccc1NC(=O)C1CCN(S(=O)(=O)c2cccc3nonc23)CC1
COCCNC(=O)CCn1c(=O)[nH]c2cc(OC)c(OC)cc2c1=O
CCOc1ccc(NC(=O)c2cc(S(=O)(=O)N3CCC(C)CC3)cn2C)cc1
O=C(Nc1ccc(C(F)(F)F)cc1)C1(c2cccs2)CCOCC1
CCC1CN(C(=O)N2CCC(C(=O)NCc3ccccc3F)CC2)c2ccccc2O1 (stereo not drawn)
Cc1ccc(NC(=O)c2c(C)oc3ncnc(N4CCCCC4)c23)c(C)c1
Cc1ccccc1NC(=O)C1CCN(S(=O)(=O)c2cccc3nonc23)CC1
COc1ccc(/C=C/C(=O)Nc2cccc(F)c2)cc1
CCOc1ccc(N(C)S(=O)(=O)c2cc(-c3cnc(C)o3)ccc2OC)cc1
CCN(C(=O)Cn1cnc2c1c(=O)n(C)c(=O)n2C)c1ccccc1C
CC(C)CN(CC(C)C)c1nnc(NC(=O)Nc2cccc(C(F)(F)F)c2)s1
CCc1ccccc1NC(=O)c1cc(S(=O)(=O)N2CCC(C)CC2)cn1C
CCOC(=O)c1cc(-c2ccc(C)cc2)n(CC(=O)Nc2cc(C)ccc2C)c1C
CC1=C(C(=O)Nc2ccc(C)cc2C)C(c2cc(Br)ccc2F)n2ncc(C(=O)Nc3ccc(C)cc3)c2N1 (stereo not drawn)
CCN1C(=O)c2ccccc2S(=O)c2ccc(C(=O)N3CCN(c4cccc(Cl)c4)CC3)cc21 (stereo not drawn)
CCOc1ccc(NC(=O)Cn2cc(C(=O)c3ccccc3)c(=O)c3cc(OC)ccc32)cc1
